{
  "source": "paper PMC3638400",
  "about": "(Philosophical Transactions of the Royal Society B: …, 2013)",
  "proteins": {"B1": {"name": "R140G HSP27 (natural protein)", "chain": "not shown", "notes": "HSP27 (HSPB1), human, with R140G (the equivalent of R120G in CRYAB); also called HSP27 R140G"}},
  "target": "the molecule itself",
  "assay": "SEC; Superformance column packed with Fractogel EMD BioSEC, calibrated with protein standards; 20 mM Tris-HCl pH 7.4, 100 mM NaCl, room temperature; self-association into oligomers",
  "data": [
    {"protein": "B1", "values": [
      {"measurement": "binding result", "value": "binds"}
    ]}
  ]
}
